± gives the standard deviation of the averaged measurements. In all, about 33,000 sequences were measured (“E-score (dimensionless, -0.5 to 0.5)”: median about -0.046, highest 2% from about 0.36 on). The list shows a part of the results.
tested on: T1, SpTbr T-box DNA-binding domain (GST fusion); test: PBM E-score of 8-mer (E-score (dimensionless, -0.5 to 0.5)); Tbr is Tbrain of the sea star Patiria miniata (Pm) or the sea urchin Strongylocentrotus purpuratus (Sp); higher = stronger binding preference; most listed sequences are background and not binding sites; settings: the construct has about 5 more residues each side
T1 sequence: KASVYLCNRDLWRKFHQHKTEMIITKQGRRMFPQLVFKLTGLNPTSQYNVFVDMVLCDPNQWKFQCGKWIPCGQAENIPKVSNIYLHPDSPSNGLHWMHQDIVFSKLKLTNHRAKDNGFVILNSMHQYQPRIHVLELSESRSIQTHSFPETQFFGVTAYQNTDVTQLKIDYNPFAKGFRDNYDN
Summary of the method: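 Each ungapped 8-mer received an enrichment E-score from the Universal PBM Analysis Suite, averaged over duplicate arrays. The proteins were Tbr T-box DNA-binding domains, covering the whole T-box plus about five flanking residues, fused to GST and expressed in BL21 E. coli at 20 °C before glutathione affinity purification. Universal Agilent oligonucleotide arrays were made double-stranded by primer extension and incubated with 200 nM protein in PBS (pH 7.5). The arrays were then scanned and quantified, and every 8-mer was scored from probe intensities.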

Row | Sequence | PBM E-score of 8-mer
1 | ATGCGGAC | -0.206 ± 0.083
2 | ATTTGGCG | 0.118 ± 0.03
3 | AGACTCGA | -0.158 ± 0.006
4 | GGTACCAC | 0.0611 ± 0.029
5 | GCATAAGA | -0.189 ± 0.0068
6 | CTCTGGAC | -0.124 ± 0.011
7 | CTCGGCTA | 0.0218 ± 0.005
8 | ATAGTACC | -0.0765 ± 0.017
9 | ATTGCCAG | 0.0978 ± 0.026
10 | AATACCAC | 0.165 ± 0.025
11 | ACTGTCCT | -0.12 ± 0.023
12 | AATTTCGG | -0.0357 ± 0.1
13 | AAATTTTG | -0.251 ± 0.094
14 | AGCACTGC | 0.087 ± 0.033
15 | AAGTCAGC | -0.196 ± 0.032
16 | CAGCGCAG | -0.14 ± 0.069
17 | CACGCTGA | 0.0482 ± 0.031
18 | CAAGACCC | -0.0846 ± 0.045
19 | AAGACTCG | 0.0417 ± 0.017
20 | CCGCGGCG | 0.0503 ± 0.078
21 | CCAGTGAA | -0.225 ± 0.027
22 | GACGCCTA | 0.243 ± 0.068
23 | TCCCCAAA | -0.148 ± 0.057
24 | CGATTGTC | 0.0208 ± 0.016
25 | CAAAAGCC | -0.108 ± 0.0015

Row | Sequence | PBM E-score of 8-mer
26 | CTGATCGA | -0.0722 ± 0.0016
27 | AATACAGC | -0.119 ± 0.014
28 | ACTTCATC | 0.0184 ± 0.035
29 | GAAGGTAC | -0.239 ± 0.019
30 | AGGTCGTG | 0.0304 ± 0.017
31 | AGGCCACA | 0.0262 ± 0.12
32 | AGGTAATA | -0.218 ± 0.004
33 | GTGGCCCA | -0.164 ± 0.0018
34 | ATCCCTCG | -0.0209 ± 0.066
35 | ATTCTTCG | -0.0391 ± 0.032
36 | GAGGCCAC | -0.00093 ± 0.036
37 | CGTGATAA | 0.27 ± 0.036
38 | AGTTCACC | -0.00201 ± 0.066
39 | GTTTGGTA | 0.0703 ± 0.013
40 | CCTCACAG | 0.149 ± 0.032
41 | AAAGCCTT | -0.0864 ± 0.027
42 | CTGCATAA | -0.0815 ± 0.063
43 | CAATGATA | -0.0371 ± 0.0073
44 | ATTCGATG | -0.303 ± 0.013
45 | ATCGCTCA | -0.0113 ± 0.04
46 | CATAGGTA | -0.0236 ± 0.14
47 | ATTTGAGC | -0.126 ± 0.0046
48 | ACAGCCCA | -0.116 ± 0.0052
49 | CGATGCAA | -0.159 ± 0.0019
50 | CCGACCGG | -0.0611 ± 0.065

Row | Sequence | PBM E-score of 8-mer
51 | ATGACATA | -0.126 ± 0.099
52 | AGTGTGCA | 0.338 ± 0.012
53 | CAAGACGA | -0.25 ± 0.0098
54 | ACGTTGAT | -0.176 ± 0.07
55 | CTGGCGGC | -0.167 ± 0.097
56 | GTAGCGTA | -0.107 ± 0.097
57 | ATACTTTG | -0.133 ± 0.013
58 | GGTCGTGA | 0.127 ± 0.035
59 | GAGAACCC | 0.00749 ± 0.027
60 | TCAATGGA | -0.121 ± 0.064
61 | CTCTTATA | -0.118 ± 0.01
62 | AGATGCAG | -0.222 ± 0.086
63 | AATTATCT | 0.0999 ± 0.086
64 | CAGTGCAC | 0.1048 ± 0.00095
65 | ACCTGACC | 0.0637 ± 0.061
66 | AAAAACAC | 0.264 ± 0.043
67 | GACCCCAC | -0.0617 ± 0.0078
68 | AAGGCTGA | 0.0392 ± 0.035
69 | AAATTGTG | 0.118 ± 0.03
70 | AAGAACAC | 0.00158 ± 0.024
71 | CTGGTTTC | -0.0938 ± 0.029
72 | ACCGAACT | -0.0522 ± 0.0093
73 | AGCACAAC | 0.00386 ± 0.038
74 | CCGCGCAC | 0.223 ± 0.01
75 | AATCAAAA | -0.185 ± 0.11

Row | Sequence | PBM E-score of 8-mer
76 | CCCGCCGG | -0.159 ± 0.14
77 | CAATTAAC | 0.119 ± 0.041
78 | ACGTAGTC | -0.232 ± 0.015
79 | GAGGCAGA | 0.0647 ± 0.06
80 | ACGCAGCC | -0.0847 ± 0.014
81 | AAATTAGT | -0.221 ± 0.022
82 | AAAAGCCG | 0.0208 ± 0.041
83 | CCAGTGCC | -0.149 ± 0.034
84 | ATTTTGCA | 0.115 ± 0.047
85 | GACCGGCC | -0.0846 ± 0.0048
86 | AGCCGTAT | -0.134 ± 0.036
87 | CGGGAAAA | 0.0794 ± 0.075
88 | CCTATAAA | -0.327 ± 0.015
89 | GCCGGCGA | 0.0956 ± 0.041
90 | GACAACAA | 0.215 ± 0.015
91 | AGAGATAT | 0.0415 ± 0.064
92 | GAGTGCAC | -0.133 ± 0.015
93 | AATTTTCC | -0.079 ± 0.055
94 | AGTGAAGA | 0.122 ± 0.002
95 | AGCGGAAG | -0.0332 ± 0.023
96 | AACATTTA | -0.00309 ± 0.054
97 | AGCCATGA | -0.0745 ± 0.075
98 | GGGAGCCC | -0.254 ± 0.028
99 | CTGTTGTA | 0.0999 ± 0.01
100 | AAAGAACA | -0.142 ± 0.018

Row | Sequence | PBM E-score of 8-mer
101 | TAACTTCA | 0.0425 ± 0.0037
102 | CAGATTAG | -0.156 ± 0.042
103 | GATGTCGC | 0.148 ± 0.0072
104 | GATTGGGA | -0.173 ± 0.0046
105 | CTCATACC | 0.0524 ± 0.046
106 | CGCTAGTA | 0.0886 ± 0.0043
107 | CTGGTGGC | 0.106 ± 0.023
108 | AATCTCAG | -0.0558 ± 0.035
109 | GCTTCACA | 0.347 ± 0.013
110 | ACTTCTTG | 0.0721 ± 0.022
111 | ATTATGAA | 0.0146 ± 0.04
112 | AGTCGCAT | 0.0434 ± 0.019
113 | GCTCAAAC | -0.0615 ± 0.092
114 | GCGAGCAC | 0.1 ± 0.013
115 | GTGTTCGA | 0.151 ± 0.017
116 | CGTTTTCA | 0.173 ± 0.0049
117 | CCGCCCCG | -0.145 ± 0.079
118 | ATAAAATA | -0.126 ± 0.014
119 | AAACGTCC | -0.0168 ± 0.096
120 | AAGTAGAT | -0.15 ± 0.018
121 | ACGATGCG | 0.143 ± 0.034
122 | CGCTCACG | 0.222 ± 0.027
123 | AACGTACG | 0.0909 ± 0.0016
124 | ACTGCCTG | -0.17 ± 0.0091
125 | ACGTGAAT | -0.0201 ± 0.073

Row | Sequence | PBM E-score of 8-mer
126 | CGTCTACC | -0.286 ± 0.028
127 | GCGGCTAC | -0.0532 ± 0.044
128 | AGGTGGAC | -0.0858 ± 0.075
129 | GTTCCGCA | 0.0111 ± 0.093
130 | GAACGGTA | -0.245 ± 0.053
131 | CCAGTACA | -0.0727 ± 0.0081
132 | AATTGGCA | 0.177 ± 0.032
133 | AGGGGTTC | -0.0363 ± 0.029
134 | ATCTTGAC | 0.0665 ± 0.069
135 | GGTCCAGA | -0.249 ± 0.01
136 | CGTGAATC | 0.284 ± 0.0052
137 | CACATGTA | 0.126 ± 0.022
138 | CCCAGTTA | -0.175 ± 0.0019
139 | ACCGCCCG | 0.217 ± 0.061
140 | CTGTATTA | -0.174 ± 0.023
141 | AGTCTCAT | -0.116 ± 0.024
142 | CGTTGGTA | 0.018 ± 0.0055
143 | GACTTTGA | -0.227 ± 0.027
144 | CCCAGTGA | -0.143 ± 0.053
145 | ATAATATC | -0.0819 ± 0.051
146 | AAGTCGGG | -0.101 ± 0.053
147 | CTCGACAC | 0.3634 ± 0.0018
148 | CTAGGGAA | -0.2 ± 0.0059
149 | CTATTGGA | -0.2593 ± 0.0013
150 | CCGTAGGC | -0.14 ± 0.044

Row | Sequence | PBM E-score of 8-mer
151 | GACAGCCC | -0.0729 ± 0.024
152 | ACATGCAC | -0.00719 ± 0.071
153 | GGATAGTA | -0.025 ± 0.059
154 | CTGATTAC | -0.0119 ± 0.097
155 | GTCACCGA | 0.0907 ± 0.0094
156 | TATTAGCA | 0.128 ± 0.018
157 | GGTCGATA | 0.0927 ± 0.012
158 | CGACTCCA | 0.0144 ± 0.036
159 | GAGATGAC | 0.0916 ± 0.0063
160 | CCCCATCG | -0.3 ± 0.026
161 | CGGACATA | -0.151 ± 0.013
162 | ATACGGCC | -0.275 ± 0.086
163 | GCCAAATA | -0.125 ± 0.093
164 | GTGGTGCA | 0.0312 ± 0.0088
165 | GCCGATCC | -0.134 ± 0.058
166 | CCATCTGC | -0.0329 ± 0.0058
167 | AACCAGAC | -0.149 ± 0.049
168 | AGTGCAAC | 0.211 ± 0.029
169 | AAACGCAA | -0.178 ± 0.032
170 | GTGCTCGA | -0.0589 ± 0.054
171 | GTGTGGTA | 0.248 ± 0.059
172 | CGCAATAC | 0.00402 ± 0.05

— the supplement of paper PMC4166925
